# Measurements from the supplement of paper PMC12217912.
# Some of the results follow. The full chains were built here from the parent and the listed change. Inactive controls read about 0.05.
# B1: TEV protease; numbered along this chain (parent)
# chain: MGESLFKGPRDYNPISSSICHLTNESDGHTTSLYGIGFGPFIITNKHLFRRNNGTLVVQSLHGVFKVKDTTTLQQHLVDGRDMIIIRMPKDFPPFPQKLKFREPQREERICLVTTNFQTKSMSSMVSDTSCTFPSGDGIFWKHWIQTKDGQCGSPLVSTRDGFIVGIHSASNFTNTNNYFTSVPKNFMELLTNQEAQQWVSGWRLNADSVLWGGHKVFMVKPEEPFQPVKEATQL
# Variants of: B1
# Assay: raw area under fraction-flipped curve 0-4 h after induction (AUC4h, not background-subtracted), DNA-recorder readout of cleavage of the substrate (dimensionless); higher = more cleavage of the substrate by the protease variant
# Details: temperature: 34 °C; time window: 0-4 h after rhamnose induction
# 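Further: Bxb1 expression induced with 0.2% (w/v) L-rhamnose at OD600 near 0.5, cultures sampled hourly, flipped fraction per protease–substrate barcode pair counted by paired-end Illumina sequencing.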
variant,measurement,value
MGESLFKGPRDYNPISSSICHLTNESDGHTTSLYGIGFGPFIITNKHLFRRNNGTLVVQSLHGVFKVKDTTTLQQHLVDGRDMIIIRMPKDFPPFPQKLKFREPQREERICLVTTNFQTKSMSSMVSDTSCTFPSGDGIFWKHWIQTKDGQCGSPLVSTRDGFIVGIHSASNFTNTNNYFTSVPKNFMELLTNQEQQQWVSGWRLNADSVLWGGHKVFMVKPEEPFQPVKEATQL [A196Q],area with substrate ENAYFQS,0.0549
same,area with substrate ENDYFQS,0.0631
same,area with substrate ENFYFQS,0.0705
same,area with substrate ENGYFQS,0.0634
same,area with substrate ENHYFQS,0.0604
same,area with substrate ENMYFQS,0.0607
same,area with substrate ENNYFQS,0.0648
same,area with substrate ENPYFQS,0.0546
same,area with substrate ENQYFQS,0.0577
same,area with substrate ENRYFQS,0.064
same,area with substrate ENSYFQS,0.0728
same,area with substrate ENTYFQS,0.0554
MGESLFKGPRDYNPISSSICHLTNESDGHTTSLYGIGFGPFIITNKHLFRRNNGTLVVQSLHGVFKVKDTTTLQQHLVDGRDMIIIRMPKDFPPFPQKLKFREPQREERICLVTTNFQTKSMSSMVSDTSCTFPSGDGIFWKHWIQTKDGQCGSPLVSTRDGFIVGIHSASNFTNTNNYFTSVPKNFMELLTNQEAQQDVSGWRLNADSVLWGGHKVFMVKPEEPFQPVKEATQL [W199D],area with substrate ENAYFQS,0.0491
same,area with substrate ENDYFQS,0.0751
same,area with substrate ENEYFQS,0.0733
same,area with substrate ENFYFQS,0.0542
same,area with substrate ENKYFQS,0.0703
same,area with substrate ENMYFQS,0.0507
same,area with substrate ENNYFQS,0.0623
same,area with substrate ENPYFQS,0.0568
same,area with substrate ENQYFQS,0.0487
same,area with substrate ENRYFQS,0.0414
same,area with substrate ENSYFQS,0.0272
same,area with substrate ENTYFQS,0.0621
same,area with substrate ENVYFQS,0.0603
same,area with substrate ENWYFQS,0.0511
MGESLFKGPRDYNPISSSICHLTNESDGHTTSLYGIGFGPFIITNKHLFRRNNGTLVVQSLHGVFKVKDTTTLQQHLVDGRDMIIIRMPKDFPPFPQKLKFREPQREERICLVTTNFQTKSMSSMVSDTSCTFPSGDGIFWKHWIQTKDGQCGSPLVSTRDGFIVGIHSASNFTNTNNYFTSVPKNFMELLTNQEAQQWVIGWRLNADSVLWGGHKVFMVKPEEPFQPVKEATQL [S201I],area with substrate ENAYFQS,0.0532
same,area with substrate ENCYFQS,0.0647
same,area with substrate ENDYFQS,0.06
same,area with substrate ENEYFQS,0.0531
same,area with substrate ENFYFQS,0.0675
same,area with substrate ENGYFQS,0.0564
same,area with substrate ENNYFQS,0.0552
same,area with substrate ENQYFQS,0.106
same,area with substrate ENSYFQS,0.0625
same,area with substrate ENTYFQS,0.0509
same,area with substrate ENVYFQS,0.0887
MGESLFKGPRDYNPISSSICHLTNESDGHTTSLYGIGFGPFIITNKHLFRRNNGTLVVQSLHGVFKVKDTTTLQQHLVDGRDMIIIRMPKDFPPFPQKLKFREPQREERICLVTTNFQTKSMSSMVSDTSCTFPSGDGIFWKHWIQTKDGQCGSPLVSTRDGFIVGIHSASNFTNTNNYFTSVPKNFMELLTNQEAQQWVSMWRLNADSVLWGGHKVFMVKPEEPFQPVKEATQL [G202M],area with substrate ENAYFQS,0.0566
same,area with substrate ENCYFQS,0.0645
same,area with substrate ENDYFQS,0.0494
same,area with substrate ENEYFQS,0.0609
same,area with substrate ENFYFQS,0.0581
same,area with substrate ENGYFQS,0.0352
same,area with substrate ENIYFQS,0.0683
same,area with substrate ENKYFQS,0.0476
same,area with substrate ENMYFQS,0.0583
same,area with substrate ENPYFQS,0.0463
same,area with substrate ENQYFQS,0.0505
same,area with substrate ENSYFQS,0.0563
same,area with substrate ENTYFQS,0.0573
same,area with substrate ENVYFQS,0.0261
same,area with substrate ENYYFQS,0.055
MGESLFKGPRDYNPISSSICHLTNESDGHTTSLYGIGFGPFIITNKHLFRRNNGTLVVQSLHGVFKVKDTTTLQQHLVDGRDMIIIRMPKDFPPFPQKLKFREPQREERICLVTTNFQTKSMSSMVSDTSCTFPSGDGIFWKHWIQTKDGQCGSPLVSTRDGFIVGIHSASNFTNTNNYFTSVPKNFMELLTNQEAQQWVSGCRLNADSVLWGGHKVFMVKPEEPFQPVKEATQL [W203C],area with substrate ENAYFQS,0.0704
same,area with substrate ENCYFQS,0.0666
same,area with substrate ENDYFQS,0.0805
same,area with substrate ENEYFQS,0.0509
same,area with substrate ENFYFQS,0.0661
same,area with substrate ENIYFQS,0.0169
same,area with substrate ENKYFQS,0.0789
same,area with substrate ENNYFQS,0.0665
same,area with substrate ENQYFQS,0.0583
same,area with substrate ENRYFQS,0.0758
same,area with substrate ENSYFQS,0.0442
same,area with substrate ENTYFQS,0.0551
same,area with substrate ENVYFQS,0.0687
same,area with substrate ENWYFQS,0.0257
MGESLFKGPRDYNPISSSICHLTNESDGHTTSLYGIGFGPFIITNKHLFRRNNGTLVVQSLHGVFKVKDTTTLQQHLVDGRDMIIIRMPKDFPPFPQKLKFREPQREERICLVTTNFQTKSMSSMVSDTSCTFPSGDGIFWKHWIQTKDGQCGSPLVSTRDGFIVGIHSASNFTNTNNYFTSVPKNFMELLTNQEAQQWVSGERLNADSVLWGGHKVFMVKPEEPFQPVKEATQL [W203E],area with substrate ENAYFQS,0.0702
same,area with substrate ENCYFQS,0.0535
same,area with substrate ENDYFQS,0.0602
same,area with substrate ENEYFQS,0.0456
same,area with substrate ENFYFQS,0.0584
same,area with substrate ENGYFQS,0.061
same,area with substrate ENHYFQS,0.0676
same,area with substrate ENMYFQS,0.0572
same,area with substrate ENPYFQS,0.071
same,area with substrate ENQYFQS,0.0529
same,area with substrate ENSYFQS,0.06
same,area with substrate ENTYFQS,0.0643
same,area with substrate ENVYFQS,0.0626
MGESLFKGPRDYNPISSSICHLTNESDGHTTSLYGIGFGPFIITNKHLFRRNNGTLVVQSLHGVFKVKDTTTLQQHLVDGRDMIIIRMPKDFPPFPQKLKFREPQREERICLVTTNFQTKSMSSMVSDTSCTFPSGDGIFWKHWIQTKDGQCGSPLVSTRDGFIVGIHSASNFTNTNNYFTSVPKNFMELLTNQEAQQWVSGWQLNADSVLWGGHKVFMVKPEEPFQPVKEATQL [R204Q],area with substrate ENAYFQS,0.0948
same,area with substrate ENCYFQS,0.0695
same,area with substrate ENDYFQS,0.0562
same,area with substrate ENEYFQS,0.0626
same,area with substrate ENGYFQS,0.0525
same,area with substrate ENHYFQS,0.0404
same,area with substrate ENIYFQS,0.105
same,area with substrate ENKYFQS,0.0624
same,area with substrate ENPYFQS,0.0642
same,area with substrate ENQYFQS,0.0636
same,area with substrate ENRYFQS,0.0589
same,area with substrate ENSYFQS,0.0564
same,area with substrate ENVYFQS,0.107
same,area with substrate ENWYFQS,0.0773
same,area with substrate ENYYFQS,0.0789
MGESLFKGPRDYNPISSSICHLTNESDGHTTSLYGIGFGPFIITNKHLFRRNNGTLVVQSLHGVFKVKDTTTLQQHLVDGRDMIIIRMPKDFPPFPQKLKFREPQREERICLVTTNFQTKSMSSMVSDTSCTFPSGDGIFWKHWIQTKDGQCGSPLVSTRDGFIVGIHSASNFTNTNNYFTSVPKNFMELLTNQEAQQWVSGWWLNADSVLWGGHKVFMVKPEEPFQPVKEATQL [R204W],area with substrate ENAYFQS,0.049
same,area with substrate ENCYFQS,0.0625
same,area with substrate ENDYFQS,0.0712
same,area with substrate ENEYFQS,0.0703
same,area with substrate ENFYFQS,0.0586
same,area with substrate ENHYFQS,0.0592
same,area with substrate ENKYFQS,0.0607
same,area with substrate ENMYFQS,0.0925
same,area with substrate ENNYFQS,0.0579
same,area with substrate ENQYFQS,0.0652
same,area with substrate ENSYFQS,0.0596
same,area with substrate ENTYFQS,0.0725
same,area with substrate ENVYFQS,0.0691
same,area with substrate ENYYFQS,0.0677
